Assay results: article PMC6212790
The other results are listed elsewhere or left out. At the low end of the ranking the order means little.

Target: T1, GST-Rok (full length) (UniProt O34857)
T1 sequence: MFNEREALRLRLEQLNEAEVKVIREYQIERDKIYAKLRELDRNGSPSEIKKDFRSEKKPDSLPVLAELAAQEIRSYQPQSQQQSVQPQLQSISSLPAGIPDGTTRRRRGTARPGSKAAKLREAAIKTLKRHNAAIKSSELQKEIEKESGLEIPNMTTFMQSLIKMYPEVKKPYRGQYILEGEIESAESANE
Experiment: protein binding microarray;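 note: rank score from −0.5 (least bound) to 0.5 (best bound)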
Details: Rok is a gene silencer of Bacillus subtilis; high values mean tight binding; most listed sequences are background and not binding sites; double strand, one strand shown

| Sequence | binding signal |
| --- | --- |
| AGCGGTAA | 0.192 E-score |
| ACGTCAAA | 0.00189 E-score |
| GGCACGCA | -0.223 E-score |
| CCGTACAC | -0.145 E-score |
| CAAGTGAC | -0.0124 E-score |
| GTATTGAC | 0.205 E-score |
| CCTTGCAG | -0.247 E-score |
| AGGGCAGA | -0.345 E-score |
| CAAGCCAG | -0.267 E-score |
| TAGATCTA | 0.303 E-score |
| CATACCCG | -0.164 E-score |
| TGTTTGAA | 0.00396 E-score |
| ATCGCTGG | -0.168 E-score |
| CTCCATAA | -0.13 E-score |
| ACTCTGCT | -0.0655 E-score |
| GCGCGGCA | -0.194 E-score |
| CCAGCGAC | -0.0112 E-score |
| AAGGACCT | -0.17 E-score |
| ATCACGGG | -0.204 E-score |
| AAGATATG | 0.069 E-score |
| GCCGAAGC | -0.33 E-score |
| AGTTGACG | -0.0447 E-score |
| GAAAAGTA | 0.262 E-score |
| CCCCGGAC | -0.303 E-score |
| AAATGGAA | -0.0394 E-score |

| Sequence | binding signal |
| --- | --- |
| AGCCTCTC | -0.165 E-score |
| AAAACCAG | -0.0134 E-score |
| ACCTAAAT | 0.291 E-score |
| GTGACGAA | -0.0125 E-score |
| ACGCAACA | 0.0166 E-score |
| GCAATGCA | 0.063 E-score |
| AGACCTAG | 0.0302 E-score |
| TCTATAAA | 0.186 E-score |
| GACTCTCA | -0.0714 E-score |
| ACAAAGTA | 0.288 E-score |
| CCCAGGCC | -0.356 E-score |
| CCCTCCCC | -0.462 E-score |
| CACGAGCA | -0.0918 E-score |
| GATCTTAC | 0.189 E-score |
| ACATATAA | 0.329 E-score |
| ATAAATGC | 0.219 E-score |
| GAATAAGA | 0.0395 E-score |
| ACGTTAAA | 0.0739 E-score |
| ATGGAGCG | -0.152 E-score |
| AGGGAATG | -0.0807 E-score |
| TGAGGAAA | -0.105 E-score |
| CATCGTCC | -0.151 E-score |
| CCACCGTC | -0.215 E-score |
| CCCTTTCA | -0.179 E-score |
| AGAGGTAA | 0.212 E-score |

| Sequence | binding signal |
| --- | --- |
| GTTGGCAA | 0.0293 E-score |
| CATTTACC | 0.064 E-score |
| ATATAGTC | 0.25 E-score |
| AATTAAGC | -0.0262 E-score |
| CATTTATA | 0.317 E-score |
| AATGTGTC | 0.0624 E-score |
| GATTTAGC | 0.0826 E-score |
| CCGGTCAG | 0.121 E-score |
| CATGGCCG | -0.189 E-score |
| ACACATGC | -0.0345 E-score |
| ACATCGGC | -0.0779 E-score |
| ACACTCCG | -0.118 E-score |
| CCAATCGA | 0.0148 E-score |
| GATCCCAA | -0.147 E-score |
| TCTACGAA | 0.0194 E-score |
| CCCCGCTC | -0.178 E-score |
| GAGCTGCC | -0.161 E-score |
| AGGCACCC | -0.224 E-score |
| CATTGTCG | -0.0271 E-score |
| CACTCCGA | -0.251 E-score |
| AGCGACCC | -0.194 E-score |
| ACCGAGGG | -0.334 E-score |
| GGGCAGAC | -0.267 E-score |
| TCCCCGAA | -0.185 E-score |
| GTGGATTA | -0.000195 E-score |

| Sequence | binding signal |
| --- | --- |
| CCGGATCA | -0.0925 E-score |
| GTTCCTGA | -0.0254 E-score |
| CTATTCCC | -0.184 E-score |
| AACCTTGT | -0.0582 E-score |
| ATCGCGTA | 0.182 E-score |
| AAATAGCG | 0.0843 E-score |
| AGTGTGAG | 0.0596 E-score |
| ATGCACAG | 0.011 E-score |
| ACGAGCTG | -0.171 E-score |
| GCATGGTA | 0.105 E-score |
| CCGGTAAC | 0.0335 E-score |
| TCCACTCA | 0.0497 E-score |
| TCCTCCCA | -0.224 E-score |
| GCACTCTA | -0.0891 E-score |
| ACAGTGTA | 0.268 E-score |
| GCCACACC | -0.0414 E-score |
| CGACACGC | -0.197 E-score |
| ACGATATA | 0.298 E-score |
| GTGCTCAA | -0.122 E-score |
| AACGCCAC | -0.204 E-score |
| ACCCAAAG | -0.15 E-score |
| ATTCCGTC | -0.0689 E-score |
| CTCCTTCA | -0.246 E-score |
| GGACCGAC | -0.163 E-score |
| AGTCCCCC | -0.367 E-score |

| Sequence | binding signal |
| --- | --- |
| ACATCCAA | 0.0811 E-score |
| CACAGGCA | -0.142 E-score |
| AGCAAGGC | -0.157 E-score |
| GCATCCTA | -0.0197 E-score |
| GAAATAGA | 0.221 E-score |
| GTCTTAGA | -0.0385 E-score |
| GGGCCAAA | 0.0182 E-score |
| GAAAGTCA | -0.0575 E-score |
| CGAGACCA | -0.177 E-score |
| ATCACCGA | -0.0834 E-score |
| GCCCGGCA | -0.126 E-score |
| AGCTTTAG | 0.0381 E-score |
| CTACCGCA | 0.267 E-score |
| CATAGCAA | 0.165 E-score |
| GTTAACCA | -0.0326 E-score |
| AGTCCAGC | -0.258 E-score |
| ATTTGGGG | -0.368 E-score |
| CCCTCGCC | -0.381 E-score |
| GTTTTCGA | 0.0689 E-score |
| CATTCCGG | 0.131 E-score |
| ATGATCAT | 0.176 E-score |
| CATCGTAA | 0.169 E-score |
| GGTGGTAA | 0.118 E-score |
| ACTCAAAC | 0.0822 E-score |
| CGATACAA | 0.185 E-score |

| Sequence | binding signal |
| --- | --- |
| CTGAGTTA | 0.111 E-score |
| ATCCAGTA | 0.261 E-score |
| CTAATCAA | 0.165 E-score |
| GTACGAAC | 0.106 E-score |
| AGTATCTG | 0.189 E-score |
| CAGATAGG | 0.0421 E-score |
| ATCCACGG | -0.0964 E-score |
| CTATAATC | 0.279 E-score |
| GTTGGCGA | -0.0273 E-score |
| ACACGTAA | 0.168 E-score |
| AGAGGAGA | -0.0587 E-score |
| GCGTCACC | -0.305 E-score |
| GCCTAGGC | -0.254 E-score |
| CAGCATAC | 0.0509 E-score |
| GCGGCTCC | -0.4 E-score |
| CGCTTTCA | -0.0495 E-score |
| CTCGAACC | -0.189 E-score |
| GCCGGTAA | -0.0809 E-score |
| AAGGAGAC | -0.306 E-score |
| AGCAGTAT | 0.015 E-score |
| AAACGGCT | 0.00482 E-score |
| AAGCCTCT | -0.124 E-score |
| ACGACTCG | -0.0329 E-score |
| GCTGGTGA | -0.0724 E-score |
| CCGTACCG | -0.185 E-score |

| Sequence | binding signal |
| --- | --- |
| ATGTGATG | 0.0247 E-score |
| CTCGCGCA | 0.00625 E-score |
| AAGCCACG | -0.301 E-score |
| AGCGACAA | -0.163 E-score |
| AGTTAAGA | -0.036 E-score |
| AACAATCG | 0.0545 E-score |
| GGGCCTAC | -0.142 E-score |
| TCCGTTCA | -0.167 E-score |
| GCCTCAGA | -0.24 E-score |
| AGGCTAAA | -0.137 E-score |
| ACCTTAAC | -0.0118 E-score |
| CATGATCC | 0.0194 E-score |
| TTAGTCAA | 0.25 E-score |
| AAACGTGT | 0.029 E-score |
| CCCACTGA | -0.229 E-score |
| GGGCTTAA | -0.193 E-score |
| GTCTCGCA | -0.158 E-score |
| AGGTTTGC | 0.121 E-score |
| ATTAGAAT | 0.148 E-score |
| CACCACCC | -0.185 E-score |
| ATTAAAGA | 0.0226 E-score |
| CTGGAAGA | 0.0235 E-score |
| CGGAGCTA | -0.0955 E-score |
| ATTACGAG | 0.154 E-score |
| AATTGCGA | 0.175 E-score |

| Sequence | binding signal |
| --- | --- |
| CTGTGCGC | -0.0561 E-score |
| CTGAAGAA | -0.11 E-score |
| AATGTCTG | -0.0157 E-score |
| CCCCCACA | -0.345 E-score |
| AACTTGAT | 0.0397 E-score |
| CCCGAAAG | -0.246 E-score |
| GCCATCCC | -0.379 E-score |
| AATGCCCA | -0.209 E-score |
| CCGATGCC | -0.277 E-score |
| GGTTATGA | -0.21 E-score |
| ACGCCTTC | -0.0924 E-score |
| CCCCGGGC | -0.436 E-score |
| ATTGAGAA | 0.109 E-score |
| AGTTATAG | 0.316 E-score |
| GCCTGCGC | -0.313 E-score |
| AGCCGTTG | -0.208 E-score |
| AATGGCTC | -0.205 E-score |
| ATAACCAC | 0.156 E-score |
| CCTGGTCC | -0.408 E-score |
| AACCCCGT | -0.353 E-score |
| ATTCGGAC | -0.199 E-score |
| CCTCTTGA | -0.196 E-score |
| CATCCGCA | -0.1 E-score |
| GACATAAC | 0.176 E-score |
| ATATGAGG | -0.0409 E-score |

| Sequence | binding signal |
| --- | --- |
| CAGGGACC | -0.269 E-score |
| CCGGCCTA | -0.151 E-score |
| CAAACGTC | -0.0431 E-score |
| AAACCCCA | -0.371 E-score |
| GGGGGCTA | -0.326 E-score |
| AGGATGCA | 0.11 E-score |
| AAATGAGA | -0.0669 E-score |
| CTTAGAGC | -0.264 E-score |
| AGTTACGG | 0.148 E-score |
| CATGTGTC | 0.153 E-score |
| AAGAAGGA | -0.152 E-score |
| CTGGCAGC | -0.209 E-score |
| AACCTTTC | -0.0613 E-score |
| TTCTAGAA | 0.27 E-score |
| GTTACTGA | 0.146 E-score |
| CTAACAGA | 0.305 E-score |
| GAGCGTAC | -0.222 E-score |
| CAATAATC | 0.0735 E-score |
| AATGTCGG | -0.0846 E-score |
